Source: PubChem BioAssay AID588855 (National Center for Advancing Translational Sciences (NCATS), 2011)
Screen size: about 410,000 compounds; about 5,000 (1.2%) were called active. This list was built around the results that the source calls inconclusive (neither active nor inactive); the mix of calls is not that of the screen. The call rests on the fitted dose curve; in most records, active means well fitted inhibition curve with a large enough effect; inconclusive means small, poorly fitted or top-dose-only effect; inactive means no such curve, though single readings can be large or run the other way. Potencies of inconclusive entries are doubtful fits and often do not repeat.
Potency means the concentration at half of the fitted maximal effect; tags describe the fitted curve by direction and shape.

Assay: qHTS for Inhibitors of TGF-b; further: nearly all actives have a fitted effect of over 65% in size
Conditions: HepG2 CAGA-GFP TGF-b/SMAD3 reporter, GFP fluorescence, 18 h, TGF-beta stimulated, 500 pg/mL final; series mostly up to 46.1 µM
How it was run: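 TGF-beta reporter screen: HEPG2 CAGA-GFP, 1% FBS, 500 pg/mL TGF-beta final, 18 h; per-cell GFP summed per well; curves fitted and categorized by class.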
In the case of `COc1ccc(Cl)cc1NC(=O)C(C)n1nnc2sc3c(c2c1=O)CCCC3` (configuration not stated), the Potency is reported as “inactive”. With `CC(C)(C)OC(=O)N[C@H](Cc1ccccc1)C(=O)N1CCC(C(=O)O)CC1` the Potency was inconclusive: 35.5 µM [inhibitor, single point]. With `COc1ccccc1N1CCN(C(c2cc3ccc(C)cc3[nH]c2=O)c2nnnn2C2CCCC2)CC1` (configuration not stated) the Potency was “inactive”. With `COc1ccccc1C(=O)Nc1cc(-c2cccc(Br)c2)nn1-c1ccccc1` the Potency was inconclusive: 4.47 µM [inhibitor, full curve, poor fit]. With `CCOC(=O)c1ccc(NC(=S)N(CCCN2CCCC2)Cc2cccs2)cc1` the Potency was inconclusive: 17.8 µM [inhibitor, single point]. For `COCCn1c(C)cc(C(=O)COC(=O)/C=C/c2c(C)nn(C3CCS(=O)(=O)C3)c2Cl)c1C` (configuration not stated), the Potency was inconclusive: 14.1 µM [inhibitor, single point]. With `COc1cccc2c1O/C(=N\O)C(C(=O)Nc1cccc(Br)c1)C2` (configuration not stated) the Potency was inconclusive: 35.5 µM [inhibitor, single point]. In the case of `Cc1cccc(NC(=O)CSc2nc(-c3cccs3)cc(C(F)(F)F)c2C#N)c1`, the Potency is reported as “inactive”. In the case of `CC1CCc2nn(CC(=O)NCc3ccc(F)cc3)cc2C1` (configuration not stated), the Potency is reported as “inactive”. With `Cc1ccc(C(C)NC(=S)NC2CCCCC2)c(C)c1` (configuration not stated) the Potency was inconclusive: 25.1 µM [inhibitor, single point]. For `CCC1CCCN1Cn1cnc2c([nH]c3ccc(OC)cc32)c1=O` (configuration not stated), the Potency was “inactive”. In the case of `CCCCN(C(=O)CSCC(=O)Nc1ccc(C)cc1)c1c(N)n(CCCC)c(=O)[nH]c1=O`, the Potency is reported as inconclusive: 35.5 µM [inhibitor, single point]. For `Cc1cccc2cc(CN(Cc3ccco3)C(=O)NC3CCCCC3)c(=O)[nH]c12`, the Potency was inconclusive: 22.4 µM [inhibitor, partial curve, poor fit]. In the case of `c1ccc2c(c1)nc(NCCN1CCOCC1)c1nncn12`, the Potency is reported as inconclusive: 3.98 µM [inhibitor, partial curve, poor fit]. With `CC1(C)Cc2c(sc(NC(=O)c3ccc4ncsc4c3)c2C(N)=O)C(C)(C)N1` the Potency was inconclusive: 15.8 µM [inhibitor, single point]. In the case of `CCOc1cc(CNC(=O)c2ccc(NC(=O)c3nsc4ccccc34)cc2)ccc1OC`, the Potency is reported as “inactive”. With `CCOC(=O)N1CCC(NC(=O)c2oc3c(C)c(C)ccc3c2C)CC1` the Potency was inconclusive: 15.8 µM [inhibitor, single point]. With `COc1ccccc1-c1c(-c2ccc(O)cc2O)n[nH]c1C(F)(F)F` the Potency was inconclusive: 17.8 µM [inhibitor, single point]. For `CCC(Oc1ccc(F)cc1)C(=O)Nc1cc(-c2ccc(C)cc2)no1` (configuration not stated), the Potency was inconclusive: 12.6 µM [inhibitor, partial curve, poor fit]. In the case of `CCC1CCCCN1CCCNC(=O)CSc1nc2nc(C)c(Cc3ccccc3)c(C)n2n1` (configuration not stated), the Potency is reported as “inactive”. With `COc1ccc(CCNC(=O)c2c(C)nc3ccccn23)cc1OC` the Potency was “inactive”. In the case of `COc1ccc(C2/C=C\CN(C(=O)C3CCCC3)C(C)C(=O)N2Cc2ccc(F)cc2)cc1` (configuration not stated), the Potency is reported as inconclusive: 14.1 µM [inhibitor, single point]. In the case of `O=[N+]([O-])c1ccc(N2CCN(C(=S)NCc3ccc(Cl)cc3)CC2)cc1`, the Potency is reported as inconclusive: 6.31 µM [inhibitor, single point]. With `Cc1ccc(C(=O)Nc2nc3ccccc3c(=O)s2)cc1` the Potency was inconclusive: 7.94 µM [inhibitor, partial curve, poor fit]. For `CS(=O)(=O)c1sc(C#N)c2c1C(=O)CC(c1ccccc1)C2` (configuration not stated), the Potency was inconclusive: 25.1 µM [inhibitor, single point]. In the case of `Nc1ccc(C#Cc2c(-c3ccsc3)oc3ccc(N4CCOCC4)cc23)cc1`, the Potency is reported as inconclusive: 11.2 µM [inhibitor, partial curve, poor fit]. With `COC(=O)c1c(-c2cccs2)csc1NC(=O)c1cc(OC)cc(OC)c1` the Potency was “inactive”. For `NC(=O)[C@H]1CC2(CC(c3cccc(NC(=O)COc4ccc(Cl)cc4)c3)=NO2)CN1C(=O)c1ccccc1C(=O)c1ccccc1` (some centres not stated), the Potency was inconclusive: 12.6 µM [inhibitor, single point]. With `COc1ccc(N=Cc2cc(Cc3ccccc3Cl)cc([N+](=O)[O-])c2O)cc1OC` the Potency was inconclusive: 35.5 µM [inhibitor, single point]. With `CCOCCCNC(=O)c1cc2sc(Cl)cc2n1CC` the Potency was inconclusive: 35.5 µM [inhibitor, single point]. With `Cc1ccc(NC2=CC(=O)C(=O)c3ccccc32)cc1` the Potency was active: 2.82 µM. In the case of `CCN(CC)c1ccc(NC(=O)Cn2c(C)c3cnn(-c4ccccc4)c(=O)c3c2C)c(C)c1`, the Potency is reported as inconclusive: 3.16 µM [inhibitor, partial curve, poor fit]. With `O=C(CSc1ncnc2scc(-c3ccc(F)cc3)c12)c1ccc2c(c1)OCCO2` the Potency was “inactive”. With `COC(=O)C(CCCN1C(=O)c2ccccc2C1=O)(NC(C)=O)c1nnn(C)n1` (configuration not stated) the Potency was inconclusive: 2.82 µM [inhibitor, single point]. With `Cn1c2c(c(=O)n(C)c1=O)C(c1ccccc1Cl)CC(=O)N2` (configuration not stated) the Potency was inconclusive: 8.91 µM [inhibitor, partial curve]. In the case of `CCOC(=O)C1CCN(C(=O)CN(c2cccc(OC)c2)S(=O)(=O)c2ccccc2)CC1`, the Potency is reported as inconclusive: 11.2 µM [inhibitor, partial curve, poor fit]. In the case of `Cc1ccc(/C=C/C(=O)c2c(C)nc3ccccn23)cc1`, the Potency is reported as inconclusive: 35.5 µM [inhibitor, single point]. For `CCOC(=O)C(CC)n1nc(C)n2c(cc3sccc32)c1=O` (configuration not stated), the Potency was “inactive”. In the case of `Cn1c(NC(=O)c2ccccc2F)c(-c2cccs2)c(=O)c2ccccc21`, the Potency is reported as “inactive”. For `Cc1cccc(OCc2ccc(-c3nc(C#N)c(N4CCN(c5ccccc5)CC4)o3)o2)c1`, the Potency was inconclusive: 6.31 µM [inhibitor, single point]. For `CCc1ccc(CNC(=O)Cc2ccc(NC(=O)C3=C(C)OCCS3)cc2)cc1`, the Potency was inconclusive: 7.08 µM [inhibitor, partial curve, poor fit]. For `COc1cc(C(=O)NC2CCN(C)CC2)ccc1Nc1ncc2c(n1)N(CCc1ccccc1)CCC(=O)N2C`, the Potency was inconclusive: 35.5 µM [inhibitor, single point]. With `CC(C)COC(=O)N1CCCCC1c1cc(C(=O)Nc2ccc3c(c2)OCO3)no1` (configuration not stated) the Potency was “inactive”. With `Cc1cc(C)c2oc(C(=O)Nc3c(C(=O)c4ccc(F)cc4)oc4ccccc34)cc(=O)c2c1` the Potency was “inactive”. With `O=C(Nc1ccncc1)c1c(F)c(F)c(F)c(F)c1F` the Potency was “inactive”. With `CCC(=O)c1cc(F)c(N2CCN(C(=O)c3ccco3)CC2)cc1C` the Potency was inconclusive: 6.31 µM [inhibitor, single point]. With `CSc1cccc(NC(=O)CNC(=O)C2CCCCC2)c1` the Potency was “inactive”. In the case of `Cc1nc2c3ccccc3nc(SCC(=O)N3CC(C)CC(C)C3)n2n1` (configuration not stated), the Potency is reported as “inactive”. In the case of `Cc1cc(S(=O)(=O)Nc2cccc(-c3ccc(N4CCOCC4)nn3)c2)c(C)cc1Cl`, the Potency is reported as inconclusive: 35.5 µM [inhibitor, single point]. In the case of `COc1ccc([C@@H]2C[C@H]3[C@@H](CN2S(=O)(=O)c2ccccc2)C(=O)C[C@@H](c2ccccc2F)N3S(=O)(=O)c2ccc(C)cc2)cc1`, the Potency is reported as “inactive”. In the case of `COc1cc(NC(=O)c2nc3cc(C)c(C)cc3n(C)c2=O)cc(OC)c1OC`, the Potency is reported as “inactive”. With `CN1CCC(N(C)C(=S)Nc2ccc(SC(F)F)cc2)CC1` the Potency was inconclusive: 1.58 µM [inhibitor, full curve]. For `COc1ccc(N2CCN(S(=O)(=O)c3ccc(-c4cc(C(F)(F)F)on4)s3)CC2)cc1`, the Potency was inconclusive: 6.31 µM [inhibitor, single point]. For `O=C(NC1CC1)C1=C[C@H](c2csc3ccccc23)C[C@H](OCc2ccc(CO)cc2)O1`, the Potency was inconclusive: 11.2 µM [inhibitor, single point]. With `O=C(Nc1ccc2nc(-c3ccccc3)[nH]c2c1)c1cccs1` the Potency was inconclusive: 35.5 µM [inhibitor, single point]. For `Cc1ccccc1-c1nnc(-c2cccs2)o1`, the Potency was inconclusive: 7.08 µM [inhibitor, partial curve, poor fit]. With `OC(c1ccccc1)(c1ccc(F)cc1)C(c1ccccc1)N1CCOCC1` (configuration not stated) the Potency was inconclusive: 17.8 µM [inhibitor, single point]. In the case of `C#CC1CCCCC1NC(=O)Nc1cnccc1C(F)(F)F` (configuration not stated), the Potency is reported as “inactive”. In the case of `Cc1ccccc1-c1nn[nH]n1`, the Potency is reported as “inactive”. With `CCN(CC(=O)Nc1ccccc1C(F)(F)F)C(=O)CCOc1ccccc1C` the Potency was “inactive”. With `COc1ccc(-c2cc(C(=O)NCC3CCCO3)c3cc(C(C)C)ccc3n2)cc1` (configuration not stated) the Potency was “inactive”. In the case of `CCCc1nnc(NC(=O)C(CC)OC(=O)c2cc(C)nc3ccccc23)s1` (configuration not stated), the Potency is reported as inconclusive: 2.82 µM [inhibitor, full curve]. In the case of `O=C(CCCC(=O)OCC(F)(F)C(F)F)Nc1nccs1`, the Potency is reported as inconclusive: 3.98 µM [inhibitor, single point]. With `Cn1cc(-c2cc3n(n2)CCC(=O)N3CCCC(=O)NCc2ccccc2Cl)c2ccccc21` the Potency was inconclusive: 7.94 µM [inhibitor, partial curve]. With `Cc1nn(-c2ncc(C(F)(F)F)cc2Cl)c(=O)n1-c1c(F)cccc1F` the Potency was inconclusive: 1.58 µM [inhibitor, partial curve, poor fit]. In the case of `CC(C)CCn1c(SCc2cccc(F)c2)nc2ccsc2c1=O`, the Potency is reported as inconclusive: 35.5 µM [inhibitor, single point]. In the case of `COc1cccc(NC(=O)CN2C(=O)COc3ccc(S(=O)(=O)N4CCC(C)CC4)cc32)c1`, the Potency is reported as inconclusive: 7.08 µM [inhibitor, partial curve, poor fit].
